Source: the supplement of paper PMC3334620
Over roughly 33,000 sequences, “E-score (-0.5 to 0.5)” has its median near -0.013; the highest 2% begin near 0.3. This is one part of the list.

What follows are sequences tested against T1, Msn1 (UniProt P22148) (assay: PBM E-score (8-mer binding enrichment) (E-score (-0.5 to 0.5)); higher = stronger / more preferred TF binding; most listed sequences are background and not binding sites). Details: protein concentration: 200 nM; construct: GST-full length.
T1 sequence: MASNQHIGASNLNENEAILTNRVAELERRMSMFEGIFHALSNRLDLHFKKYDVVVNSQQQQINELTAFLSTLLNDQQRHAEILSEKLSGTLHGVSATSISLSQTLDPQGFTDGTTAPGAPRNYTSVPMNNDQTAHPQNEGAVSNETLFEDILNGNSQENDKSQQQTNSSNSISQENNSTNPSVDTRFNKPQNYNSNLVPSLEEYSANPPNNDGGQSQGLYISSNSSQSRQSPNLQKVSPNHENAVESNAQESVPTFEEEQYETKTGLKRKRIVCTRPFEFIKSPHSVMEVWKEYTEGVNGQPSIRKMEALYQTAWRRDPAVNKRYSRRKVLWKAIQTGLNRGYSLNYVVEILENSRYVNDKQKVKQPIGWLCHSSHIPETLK
Outline: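 For each ungapped eight-base word taken together with its reverse complement, the Universal PBM Analysis Suite assigned an E-score. Binding data came from GST-tagged yeast transcription factors, applied at about 100-200 nM, on universal all-10-mer Agilent arrays made double-stranded by primer extension. Fluorescent anti-GST marked bound protein, and scans were normalised with masliner.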

Sequence	PBM E-score
TCGCTCCA	-0.031
GCACAACA	0.0085
AAGCTATG	-0.0916
GGTCGCTA	-0.0983
AGGACGCA	0.173
CCCCGCGG	-0.217
ACCACTGC	-0.19
AAGAGCAG	-0.176
GATCGTCA	-0.148
GGTTTATA	0.0948
ACTCGGAT	0.112
GACTTCAA	-0.0472
AGCCCGAA	0.0451
CAAGTCGA	0.0241
CGCACGAA	0.0398
AGAGAACT	-0.00154
CCGGTGTC	0.09
ACTTGGTG	-0.224
ACAGCGTG	0.0507
CACGTGAC	0.225
CAATTAGA	0.00628
GCTTTTGA	-0.0979
CATCATGG	-0.077
CTCTTCAC	-0.111
CCATCGGC	-0.137

Sequence	PBM E-score
AATAATCA	0.0492
AGCTCCAG	-0.0975
CATTTTAA	0.214
CCGCGATA	-0.0107
GCCGGTTA	-0.0801
GCACGAGA	-0.0704
AATCGCTC	-0.222
CCGGTAGA	-0.125
ACCTATAT	0.279
TACGACCA	-0.025
AGAGCACA	-0.147
AAGTTATG	0.2
ATCTACGA	-0.116
ACGTGAGT	-0.174
ACTGGGAA	-0.0174
GAAGTATC	-0.00239
CAACCAGG	-0.0341
ATTTAGCG	0.0228
ACCACAAC	0.0827
GACTGCTA	-0.183
CCGCCCAG	-0.21
ACTGCATA	0.171
CTCGGGCC	-0.0837
CAATGGAC	0.226
ACTTAACT	0.015

Sequence	PBM E-score
CTGGGCTC	-0.203
GAGCGAAA	0.139
CGAGTCCA	-0.108
CCCAGACC	-0.348
GTGAGCGA	-0.0614
AGGCTGAA	-0.023
AAGGGTGA	-0.11
CCGTCTCC	-0.113
CAGGAGCG	-0.0172
GACCGTGC	-0.219
ACTCGTAT	0.0597
AGAGACCC	0.00402
CACACTAA	0.0839
AAGTACGA	0.133
GGGACGGA	-0.287
CAGGCATA	-0.184
GATAGCAC	-0.209
GACTGCTC	-0.0933
GAAGCCGC	-0.0756
CGGAACAG	0.0524
TCCCACCA	-0.249
GAGTAATC	-0.128
GTAAATCA	0.125
AAAATGTT	0.138
GCTGGACC	0.00581

Sequence	PBM E-score
ATGTATCA	0.145
AGAATCAG	-0.0144
AGTGCTCC	-0.239
AACCGATT	0.104
CGAACCAC	-0.0171
AGCGTTTA	-0.0795
TGCCTAAA	0.0527
CAACGCTG	-0.106
CAGAGTAC	0.0155
ACGTCTTA	0.0725
CACGCATA	-4e-05
AGAATCTG	0.0164
GCTAAAAA	-0.0605
CCGCGGCC	-0.0313
TAACTAAA	0.0052
GACGGGCC	-0.195
CGCTGCCG	-0.0744
GCGCCGCA	-0.0142
ATTAGGTA	0.0699
GCATAGGA	-0.103
ATCTTACC	-0.0804
ATCTCCCA	-0.13
GCGCATAA	0.00899
ACTAGGTG	-0.201
AGCGCCCA	-0.359

Sequence	PBM E-score
GAAGTGAA	-0.269
GTCCGCTA	0.104
ATCCGGTC	-0.082
GTCCATAA	0.231
CCGGTCAG	-0.0661
AATATCCT	0.0728
GCCTAGCA	-0.205
ACTGCAAC	-0.207
GACATGTA	0.424
AAATGCCT	0.139
CATCTAAA	-0.00101
GGGGCAAA	-0.0726
GCCGAAGA	0.1
AATAGTCC	0.157
GAACCCCC	-0.334
CGGACACA	0.371
ACCGAAGT	0.126
GGGAGGAC	0.0967
CCCTCAGA	-0.191
ATGCCTCC	-0.194
TTAGAGAA	-0.156
CACGGACG	0.175
CGCTTGCC	-0.0618
CAATTAAA	0.146
CGACGTCA	0.00949

Sequence	PBM E-score
AGTAAACC	0.0271
AGACTATA	0.0475
AATTTCCT	0.0244
CAGGATCC	-0.128
CCTTCAAC	-0.16
CCCGTACG	-0.161
ACGACTGG	-0.216
CCTGCCTC	-0.0901
CGGGGCAA	-0.0312
ATCGTCAT	0.152
CACTAACA	0.0318
ACACGAAC	0.0699
CGTTTCAC	0.0878
GAAGCCTA	-0.0508
AGTTGACG	0.0364
AGTGAGCC	-0.0358
GATCAAAC	0.056
CATCACTC	-0.283
TCAGCCCA	-0.213
CTAGAATC	0.033
GCTTGGCC	-0.145
CTGTCACC	-0.0649
CTTTAAAG	-0.0967
CATGTCAG	0.208
ATGTGTGG	-0.0556

Sequence	PBM E-score
GGCGGTAC	-0.135
GATGCGCA	-0.0138
TCAGCGCA	-0.104
CTGGTAAG	0.0824
ACATATTA	0.351
AGGTTTGA	-0.176
AAGAGGAA	-0.18
ACTCGTTA	-0.171
TCTCTCAA	0.112
AGACAACA	0.248
ACAAATAT	0.404
GGAGCGTA	-0.0645
ATTAGTCC	0.349
AAGACACC	-0.00494
AAACTAAC	0.102
AAGCGTTC	-0.0934
GATTCCCA	-0.0562
AGACATCT	0.29
AGCATCCT	-0.179
AGCACCGG	-0.096
GGTGTAGA	-0.233
GCCTGGCA	-0.217
